This is one part of the list. Most values come without repeats; read them as rough.
Each compound was assayed on UACC62 (assay: cell count relative to DMSO control; melanoma cells; higher = more viable cells). Conditions: library dose: standard library concentration; 72 h.
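Note: cells treated in 1,536-well plates, then fixed and DAPI-stained, with nuclei counted from automated high-throughput microscope images.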

| SMILES | cell count |
| --- | --- |
| Cn1cnc2c(F)c(Nc3ccc(Br)cc3Cl)c(C(=O)NOCCO)cc21 [selumetinib] + COc1ccc(COc2ccc(Cc3cnc(N)nc3N)cc2OC)cc1 [GW2580] (first compound 0.075 µM, partner dose 5 µM) | 64.6% |
| CCN(CC)CCNC(=O)c1c(C)[nH]c(/C=C2\C(=O)Nc3ccc(F)cc32)c1C [sunitinib] + Oc1cc(-c2nc(-c3ccccc3)[nH]c2-c2ccncc2)ccc1Cl [L779450] (first compound 2 µM, partner dose 1 µM) | 34.2% |
| Cn1cnc2c(F)c(Nc3ccc(Br)cc3Cl)c(C(=O)NOCCO)cc21 [selumetinib] + CCN(CC)CCCCNc1ncc2cc(-c3cc(OC)cc(OC)c3)c(NC(=O)NC(C)(C)C)nc2n1 [PD173074] (first compound 0.075 µM, partner dose 0.5 µM) | 59.1% |
| COc1cc([C@@H]2c3cc4c(cc3[C@@H](O[C@@H]3O[C@@H]5CO[C@@H](C)O[C@H]5[C@H](O)[C@H]3O)[C@H]3COC(=O)[C@H]23)OCO4)cc(OC)c1O [etoposide] + CCCCCCCCCCCC1=C(O)C(=O)C=C(O)C1=O [Embelin] (first compound 0.1 µM, partner dose 6 µM) | 69.3% |
| CCN(CC)CCNC(=O)c1c(C)[nH]c(/C=C2\C(=O)Nc3ccc(F)cc32)c1C [sunitinib] + Cc1cc([N+](=O)[O-])ccc1NS(=O)(=O)c1cc(Cl)ccc1Cl [FH535] (first compound 2 µM, partner dose 5 µM) | 42.3% |
| C[C@]1(O)C[C@@H](c2nc(-c3ccc4ccc(-c5ccccc5)nc4c3)c3c(N)nccn32)C1 + COC(=O)c1sccc1S(=O)(=O)Nc1ccc(Nc2ccccc2)cc1OC [GSK0660] (first compound 2 µM, partner dose 5 µM) | 86.7% |
| COc1cc([C@@H]2c3cc4c(cc3[C@@H](O[C@@H]3O[C@@H]5CO[C@@H](C)O[C@H]5[C@H](O)[C@H]3O)[C@H]3COC(=O)[C@H]23)OCO4)cc(OC)c1O [etoposide] + c1cc(-c2cnn3cc(-c4ccc(OCCN5CCCCC5)cc4)cnc23)ccn1 [Dorsomorphin] (first compound 0.1 µM, partner dose 2 µM) | 52% |
| C[C@]1(O)C[C@@H](c2nc(-c3ccc4ccc(-c5ccccc5)nc4c3)c3c(N)nccn32)C1 + CCN(CC)CCCCNc1ncc2cc(-c3cc(OC)cc(OC)c3)c(NC(=O)NC(C)(C)C)nc2n1 [PD173074] (first compound 2 µM, partner dose 0.5 µM) | 91% |
| COc1cc([C@@H]2c3cc4c(cc3[C@@H](O[C@@H]3O[C@@H]5CO[C@@H](C)O[C@H]5[C@H](O)[C@H]3O)[C@H]3COC(=O)[C@H]23)OCO4)cc(OC)c1O [etoposide] + CCN(CC)CCCCNc1ncc2cc(-c3cc(OC)cc(OC)c3)c(NC(=O)NC(C)(C)C)nc2n1 [PD173074] (first compound 0.1 µM, partner dose 0.5 µM) | 68.5% |
| COc1cc([C@@H]2c3cc4c(cc3[C@@H](O[C@@H]3O[C@@H]5CO[C@@H](C)O[C@H]5[C@H](O)[C@H]3O)[C@H]3COC(=O)[C@H]23)OCO4)cc(OC)c1O [etoposide] + O=C(Nc1ccccc1)c1cc([N+](=O)[O-])ccc1Cl [GW9662] (first compound 0.1 µM, partner dose 10 µM) | 68.4% |
| COc1cc([C@@H]2c3cc4c(cc3[C@@H](O[C@@H]3O[C@@H]5CO[C@@H](C)O[C@H]5[C@H](O)[C@H]3O)[C@H]3COC(=O)[C@H]23)OCO4)cc(OC)c1O [etoposide] + COc1ccc2c(c1)CCC1C2CCC2(C)C(NCCCCCCN3C(=O)C=CC3=O)CCC12 [U73122] (first compound 0.1 µM, partner dose 2 µM) | 64.2% |
| Cn1cnc2c(F)c(Nc3ccc(Br)cc3Cl)c(C(=O)NOCCO)cc21 [selumetinib] + O=C(O)C(=O)Nc1sc2c(c1C(=O)O)CCNC2 [TCS401] (first compound 0.075 µM, partner dose 8.33333 µM) | 78.7% |
| C[C@]1(O)C[C@@H](c2nc(-c3ccc4ccc(-c5ccccc5)nc4c3)c3c(N)nccn32)C1 + Oc1nc(-c2ccc(C(F)(F)F)cc2)nc2c1CSCC2 [XAV939] (first compound 2 µM, partner dose 10 µM) | 74.3% |
